In PubChem BioAssay AID1345082 (National Center for Advancing Translational Sciences (NCATS), 2018):
In all, about 94,000 compounds went through this assay and about 4,000 (4.3%) were called active. Inconclusive results, whose numbers are uncertain, are shown with a selection of clear calls. Calls come from the whole dose curve; as a rule, active = well fitted inhibition curve with a large enough effect; inconclusive = small, poorly fitted or top-dose-only effect; inactive = no such curve, though single readings can be large or run the other way. Potencies of inconclusive entries are doubtful fits and often do not repeat.

Test: Cytotoxic Profiling in NIH 3T3 Cell Line of Diverse Libraries Using Quantitative High-Throughput Screening; note: nearly all actives have a fitted effect of over 55% in size
Conditions: NIH 3T3 viability, CellTiter-Glo ATP luminescence, 48-72 h; activity change, negative = cytotoxicity: at 96.7 µM (top of the series) unless noted; series mostly up to 96.7 µM
In short: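 ATP-dependent luminescence (CellTiter-Glo) served as the viability signal for NIH 3T3 cells treated with compound for 48 or 72 hr at 37 °C.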
% is set by controls: 0 for no effect and ±100 for the full control effect; potency is the fitted concentration of half-maximal effect; tags give direction and shape of the fitted curve.

SMILES | activity change, negative = cytotoxicity | Potency
CC1=C(C(=O)N(C)C)C(c2ccc(Cl)cc2)N2C(CC(=O)NCC3CCCO3)=CSC2=N1 (configuration not stated) | inactive: -8.86% | 
COc1ccc(-c2cc3c(=O)n(CCNC(=O)c4ccccn4)ccn3n2)cc1 | inactive: -27.1% | 
COCCN1C(=O)[C@@H]2C[C@@H](CN2C(=O)Cc2ccccc2)Oc2ccccc21 |  | inconclusive: 100 µM [inhibitor, partial curve, poor fit]
Cc1noc(-c2ccc(OC(F)(F)F)cc2)c1C(=O)NCCC(c1ccccc1)c1ccccc1 |  | inconclusive: 35.5 µM [inhibitor, partial curve, poor fit]
OCC1CN(C2CCC2)CC12CCN(Cc1cc(F)c(F)c(F)c1)CC2 (configuration not stated) |  | inconclusive: 44.7 µM [inhibitor, partial curve, poor fit]
COc1ccc(-c2cc(N3CCC(NC(=O)Cc4ccsc4)CC3)n[nH]2)cc1 |  | inconclusive: 44.7 µM [inhibitor, partial curve, poor fit]
N#Cc1cccc(NC(=S)N[C@H]2CO[C@H]3[C@@H]2OC[C@@H]3n2nnnc2Oc2ccc3c(c2)OCO3)c1 |  | inconclusive: 79.4 µM [inhibitor, single point]
CN(Cc1nccs1)Cc1cccn1C | inactive: -12.5% [at 174 µM] | 
CO[C@H]1C(=O)N(C2CCN(C(=O)c3ccccn3)CC2)[C@H]1c1ccncc1 | inactive: -0.624% | 
O=C1CCN(C[C@@H](O)COCc2ccccc2)c2ccc(F)cc2CN1Cc1ccccc1 |  | inconclusive: 44.7 µM [inhibitor, partial curve, poor fit]
COc1ccc(CNC(=O)[C@@H]2Cc3cn(Cc4ccncc4)c4cccc(c34)[C@H](CC(C)C)N2)cc1 |  | active: 79.4 µM
COc1ccc(C(=O)N2CCC[C@H]2c2nc(-c3ccc(OC)c(OC)c3)no2)cc1F |  | inconclusive: 50.1 µM [inhibitor, partial curve, poor fit]
COc1cccc(C2CCN(C(=O)c3cn(CCc4ccccc4)nn3)C2)c1OC (configuration not stated) |  | inconclusive: 28.2 µM [inhibitor, full curve]
CC(C)CC(=O)NC1CCN(c2cnn(Cc3ccccc3)c(=O)c2)CC1 | inactive: -14.5% | 
COc1ccc(NC(=O)c2nc3sccn3c2-c2cccc(C(F)(F)F)c2)cc1 |  | inconclusive: 50.1 µM [inhibitor, partial curve, poor fit]
Cc1ccsc1C(=O)N1CCC(c2nc(-c3ccccc3)no2)C1 (configuration not stated) |  | inconclusive: 44.7 µM [inhibitor, partial curve, poor fit]
CN(C)C(=O)C1CN(C(=O)Nc2cc(F)cc(F)c2)CC12CCOCC2 (configuration not stated) |  | inconclusive: 79.4 µM [inhibitor, single point]
